Measured values taken from PMC9911399, “Two distinct binding modes provide the RNA-binding protein RbFox with extraordinary sequence specificity”.
Substitutions are numbered along the chain they refer to; changes in the protein carry UniProt numbers. The list shows a part of the results.

T1: RBFOX1 RRM RbFoxmut (Fox-RRM*) (Homo sapiens, UniProt Q9NWB1 109-208, R118D;E147R;N151S;E152T)
T1 sequence: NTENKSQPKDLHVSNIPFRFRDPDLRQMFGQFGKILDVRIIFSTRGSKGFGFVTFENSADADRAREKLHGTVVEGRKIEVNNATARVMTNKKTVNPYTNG

B1: UUCCUAA (DNA:RNA)
RNA: GGGAGACCGGAAUUCAGAUUGUCCUUCCUAAUUAAAUCCCGUCGUAGCCACCA
DNA 1: CAATCTGAATTCCGGTCTCCC
DNA 2: TGGTGGCTACGACGGGATT
B2: UUGAAUU (DNA:RNA)
RNA: B1 RNA with C27G, C28A, U29A, A30U, A31U
DNA 1: CAATCTGAATTCCGGTCTCCC
DNA 2: TGGTGGCTACGACGGGATT
B3: GCAUGCG (DNA:RNA)
RNA: GGGAGACCGGAAUUCAGAUUGUCCGCAUGCGUUAAAUCCCGUCGUAGCCACCA
DNA 1: CAATCTGAATTCCGGTCTCCC
DNA 2: TGGTGGCTACGACGGGATT
B4: AACUACA (DNA:RNA)
RNA: B3 RNA with G25A, C26A, A27C, G29A, G31A
DNA 1: CAATCTGAATTCCGGTCTCCC
DNA 2: TGGTGGCTACGACGGGATT
B5: GGCUUGC (DNA:RNA)
RNA: B3 RNA with C26G, A27C, G29U, C30G, G31C
DNA 1: CAATCTGAATTCCGGTCTCCC
DNA 2: TGGTGGCTACGACGGGATT
B6: ACAUCGC (DNA:RNA)
RNA: B3 RNA with G25A, G29C, C30G, G31C
DNA 1: CAATCTGAATTCCGGTCTCCC
DNA 2: TGGTGGCTACGACGGGATT
B7: UUGUUAA (DNA:RNA)
RNA: B1 RNA with C27G, C28U
DNA 1: CAATCTGAATTCCGGTCTCCC
DNA 2: TGGTGGCTACGACGGGATT
B8: AGCCACG (DNA:RNA)
RNA: B3 RNA with G25A, C26G, A27C, U28C, G29A
DNA 1: CAATCTGAATTCCGGTCTCCC
DNA 2: TGGTGGCTACGACGGGATT
B9: CUUUAAU (DNA:RNA)
RNA: B1 RNA with U25C, C27U, C28U, U29A, A31U
DNA 1: CAATCTGAATTCCGGTCTCCC
DNA 2: TGGTGGCTACGACGGGATT
B10: GUUUUCC (DNA:RNA)
RNA: B3 RNA with C26U, A27U, G29U, G31C
DNA 1: CAATCTGAATTCCGGTCTCCC
DNA 2: TGGTGGCTACGACGGGATT
B11: AGAAAGG (DNA:RNA)
RNA: B3 RNA with G25A, C26G, U28A, G29A, C30G
DNA 1: CAATCTGAATTCCGGTCTCCC
DNA 2: TGGTGGCTACGACGGGATT
B12: CCUCAUC (DNA:RNA)
RNA: B3 RNA with G25C, A27U, U28C, G29A, C30U, G31C
DNA 1: CAATCTGAATTCCGGTCTCCC
DNA 2: TGGTGGCTACGACGGGATT
B13: CUGAGCA (DNA:RNA)
RNA: B3 RNA with G25C, C26U, A27G, U28A, G31A
DNA 1: CAATCTGAATTCCGGTCTCCC
DNA 2: TGGTGGCTACGACGGGATT
B14: GGUUGUC (DNA:RNA)
RNA: B3 RNA with C26G, A27U, C30U, G31C
DNA 1: CAATCTGAATTCCGGTCTCCC
DNA 2: TGGTGGCTACGACGGGATT
B15: AAUCAAA (DNA:RNA)
RNA: B1 RNA with U25A, U26A, C27U, U29A
DNA 1: CAATCTGAATTCCGGTCTCCC
DNA 2: TGGTGGCTACGACGGGATT
B16: GGCACCG (DNA:RNA)
RNA: B3 RNA with C26G, A27C, U28A, G29C
DNA 1: CAATCTGAATTCCGGTCTCCC
DNA 2: TGGTGGCTACGACGGGATT
B17: CAGGUUU (DNA:RNA)
RNA: B1 RNA with U25C, U26A, C27G, C28G, A30U, A31U
DNA 1: CAATCTGAATTCCGGTCTCCC
DNA 2: TGGTGGCTACGACGGGATT
B18: GAACGCG (DNA:RNA)
RNA: B3 RNA with C26A, U28C
DNA 1: CAATCTGAATTCCGGTCTCCC
DNA 2: TGGTGGCTACGACGGGATT
B19: UUACAGG (DNA:RNA)
RNA: B1 RNA with C27A, U29A, A30G, A31G
DNA 1: CAATCTGAATTCCGGTCTCCC
DNA 2: TGGTGGCTACGACGGGATT
B20: UCCCUCU (DNA:RNA)
RNA: B1 RNA with U26C, A30C, A31U
DNA 1: CAATCTGAATTCCGGTCTCCC
DNA 2: TGGTGGCTACGACGGGATT

The binders below were run against T1, RBFOX1 RRM RbFoxmut (Fox-RRM*) (assay: EMSA; HiTS-Eq, 1 nM pool, 10 min; buffer printed only for the single-RNA assays: 10 mM Tris pH 7.5, 150 mM NaCl, 3.4 mM EDTA, 0.001% NP-40, 30 C). Settings: tags: His6 N-terminal (pET28a); label: 5' 32P.
In short: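 Purified wild-type or mutant RbFox RRM at increasing concentrations was equilibrated with 1 nM of 5′-radiolabelled RNA carrying 7 randomized nucleotides for 10 min in 50 µL. Unbound RNA was separated by 8% native PAGE and sequenced. Relative association constants came from read-count changes of each RNA species compared with the control reaction, normalised to the cognate motif.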
For B1, the binding signal was 0.0929 KA relative to UGCAUGU.
B2 was tested, and the binding signal was 0.104 KA relative to UGCAUGU.
With B3 the binding signal was 0.872 KA relative to UGCAUGU.
In the case of B4, the binding signal is reported as 0.121 KA relative to UGCAUGU.
In the case of B5, the binding signal is reported as 0.199 KA relative to UGCAUGU.
With B6 the binding signal was 0.107 KA relative to UGCAUGU.
For B7, the binding signal was 0.152 KA relative to UGCAUGU.
In the case of B8, the binding signal is reported as 0.0895 KA relative to UGCAUGU.
With B9 the binding signal was 0.0766 KA relative to UGCAUGU.
With B10 the binding signal was 0.0513 KA relative to UGCAUGU.
For B11, the binding signal was 0.072 KA relative to UGCAUGU.
With B12 the binding signal was 0.0765 KA relative to UGCAUGU.
In the case of B13, the binding signal is reported as 0.125 KA relative to UGCAUGU.
For B14, the binding signal was 0.232 KA relative to UGCAUGU.
B15 was tested, and the binding signal was 0.0706 KA relative to UGCAUGU.
For B16, the binding signal was 0.132 KA relative to UGCAUGU.
With B17 the binding signal was 0.0791 KA relative to UGCAUGU.
For B18, the binding signal was 0.178 KA relative to UGCAUGU.
B19 was tested, and the binding signal was 0.0908 KA relative to UGCAUGU.
With B20 the binding signal was 0.0905 KA relative to UGCAUGU.
